# Test results published in article PMC4336329 (PLoS ONE, 2015).
# The campaign covered roughly 310,000 compounds. About 2,200 (0.71%) showed an effect of 50% or more. The effect is printed as a negative number. The list shows a part of the results.
# Biological target: human ether-à-go-go-related gene (hERG) potassium channel (human, UniProt Q12809)
# Experiment: primary screen, population patch clamp on CHO cells stably expressing hERG
# human ether-à-go-go-related gene (hERG) potassium channel, sequence (Q12809 whole entry, looked up): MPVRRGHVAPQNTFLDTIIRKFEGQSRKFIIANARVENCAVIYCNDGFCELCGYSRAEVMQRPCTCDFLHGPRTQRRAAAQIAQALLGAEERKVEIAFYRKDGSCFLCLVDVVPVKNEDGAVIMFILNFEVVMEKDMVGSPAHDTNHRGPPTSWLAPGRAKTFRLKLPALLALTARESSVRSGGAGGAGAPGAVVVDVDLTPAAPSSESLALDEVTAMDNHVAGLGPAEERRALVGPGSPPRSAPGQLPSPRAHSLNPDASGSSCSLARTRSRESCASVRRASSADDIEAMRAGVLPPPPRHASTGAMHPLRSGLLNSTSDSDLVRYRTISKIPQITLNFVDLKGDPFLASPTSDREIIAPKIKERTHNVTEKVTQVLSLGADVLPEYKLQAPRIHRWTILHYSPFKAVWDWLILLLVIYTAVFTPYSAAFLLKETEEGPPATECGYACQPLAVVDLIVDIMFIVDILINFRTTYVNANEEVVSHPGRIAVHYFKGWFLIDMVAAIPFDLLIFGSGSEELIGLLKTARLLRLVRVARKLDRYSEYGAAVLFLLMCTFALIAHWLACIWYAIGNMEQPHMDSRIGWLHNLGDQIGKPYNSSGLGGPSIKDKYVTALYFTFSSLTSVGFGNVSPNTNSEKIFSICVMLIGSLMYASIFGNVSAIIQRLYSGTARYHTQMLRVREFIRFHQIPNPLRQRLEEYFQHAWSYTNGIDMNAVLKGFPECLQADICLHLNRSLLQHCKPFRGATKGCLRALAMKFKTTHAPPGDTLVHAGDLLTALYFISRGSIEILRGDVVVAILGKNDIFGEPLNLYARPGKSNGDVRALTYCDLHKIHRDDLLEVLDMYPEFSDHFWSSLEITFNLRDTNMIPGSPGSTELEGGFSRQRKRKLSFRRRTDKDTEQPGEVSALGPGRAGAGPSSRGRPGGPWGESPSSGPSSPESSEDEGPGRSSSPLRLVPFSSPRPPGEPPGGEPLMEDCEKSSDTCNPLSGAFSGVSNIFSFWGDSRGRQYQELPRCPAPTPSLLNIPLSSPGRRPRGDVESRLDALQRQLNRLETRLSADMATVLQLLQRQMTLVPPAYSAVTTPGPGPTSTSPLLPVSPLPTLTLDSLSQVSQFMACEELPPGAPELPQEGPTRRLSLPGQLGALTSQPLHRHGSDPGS
row,Structure (SMILES),"hERG current change (%, negative = inhibition) at 1uM [%]"
1,COc1ccc(C(=O)OCC(=O)N2CCCCCC2)cc1S(=O)(=O)N1CCOCC1,3.49
2,COc1ccc2oc(C(=O)Nc3ccccc3N3CCOCC3)c(C)c2c1,9.17
3,COCCn1c(CN2CCc3ccccc3C2)nc2c1c(=O)n(C)c(=O)n2C,4.77
4,Cn1c(-c2ccccc2)cccc1=O,2.27
5,COC(=O)c1ccc(COC(=O)c2c(C)nn(Cc3ccccc3Cl)c2Cl)o1,16.3
6,O=C(c1cccc(F)c1)N1CCN(C(=O)c2cc3ncc(Br)cn3n2)CC1,15
7,O=C(Nc1ccccc1)C1CC(=O)N(C2CCCCC2)C1 (stereo not shown),11.1
8,Cc1ccc(NC(=O)Cn2nnc(C(=O)Nc3ccc(C)c(C)c3)c2N)cc1,6.54
9,CCOC(=O)c1c(NC(=O)CSc2n[nH]c(CNc3ccccc3)n2)sc(C)c1C,6.94
10,COc1ccc(-n2c(=O)c3c4c(sc3n(CC(=O)Nc3cc(C)[nH]n3)c2=O)CCCC4)c(OC)c1,10.2
11,O=C(Nc1ccc(O)c2c(=O)cc(-c3cccc(Cl)c3)oc12)c1cccc(Cl)c1,9.01
12,COc1cccc(CN2CCN(Cc3cccc(Oc4ccccc4)c3)CC2)c1OC.O=C(O)C(=O)O,13.6
13,COC(=O)c1ccc(CNC(=O)c2ccc3c(c2)NC(=O)CS3)cc1,4.55
14,CC[C@H](C)[C@@H]1O[C@@]2(C=CC1C)CC1C[C@@H](CC=C(C)C(O[C@H]3CC(OC)C(O[C@H]4CC(OC)C(O)C(C)O4)C(C)O3)C(C)C=CC=C3CO[C@@H]4C(O)C(C)=C[C@@H](C(=O)O1)[C@]34O)O2 (stereo partly shown),-0.942
15,CCN1CCN(Cc2ccc(NC(=O)Nc3ccccc3OC)cc2)CC1,9.01
16,CN(C)S(=O)(=O)c1ccc(NC(=O)/C=C/c2ccccc2Cl)cc1,3.66
17,O=C1CCCc2c1nc(-c1ccccc1)n2O,6.68
18,CC(C)Cc1ccccc1O,9.67
19,COc1ccc(OC(C)c2ccc(C#N)c(=O)[nH]2)cc1 (stereo not shown),2.85
20,CC(=O)Nc1nonc1NC(=O)COc1ccccc1,7.15
21,CNC(=O)C(=O)N1CCC2(CC1)OCCN2S(=O)(=O)c1ccc(C)cc1,2.89
22,Cn1c(=O)c2c(nc(CN3CCN(C(=O)c4ccco4)CC3)n2CC(N)=O)n(C)c1=O,15.4

row,Structure (SMILES),"hERG current change (%, negative = inhibition) at 1uM [%]"
1,Cc1ccc(Nc2nnc(SCC(=O)NCCN3C(=O)CSC3=O)s2)cc1C,10.7
2,CC(=O)N1c2ccc(S(=O)(=O)NCCC(=O)Nc3ccc(C)cn3)cc2CC1C (stereo not shown),13.4
3,O=C1OC(c2ccc(Cl)cc2)=N/C1=C\c1cccnc1,13.5
4,CCOC(=O)N1CCN(C(=O)CN(c2ccc(C)c(C)c2)S(=O)(=O)c2ccccc2)CC1,6.04
5,Cc1nc2c(C)cccc2c2c1CCS2,-0.722
6,O=C(Nc1ccc(-n2cnnn2)cc1)C1CCCN1C(=O)Nc1ccc(Br)cc1 (stereo not shown),-47.3
7,O=C(CCn1nc(-c2ccccc2)ccc1=O)N1CCCC1,-4.81
8,Cc1ccc(Sc2cc(C(=O)NCCN(C)C)c3ccccc3n2)cc1,-6.33
9,Oc1cccc(NC(=S)Nc2cccnc2)c1,11.9
10,COC(=O)c1nn(-c2ccccc2)c(Cl)c1/C=N/OCc1ccc(Cl)cc1Cl,17.9
11,CCOC(=O)N1CCN(CCC(=O)Nc2cc(OC)ccc2OC)CC1,7.28
12,Cc1ccn(CCC(=O)N2CCCC(CCC(=O)N3CCN(c4ccccn4)CC3)C2)n1 (stereo not shown),7.62
13,Cc1ccc(N2C(=O)C3C4C=CC(CNC(=S)N5CCN(c6cccc(C)c6)C(C)C5)(O4)C3C2=O)cc1 (stereo not shown),-11
14,COc1ccc(CN2C(=O)c3cccnc3C2=O)cc1S(=O)(=O)NCc1ccccc1,8.83
15,CS(=O)(=O)N(CC(=O)Nc1ccccc1F)C1CCCCC1,21.9
16,CCOC(=O)C1CCCN(Cc2ccc(OCc3ccccc3)c(OC)c2)C1.O=C(O)C(=O)O (stereo not shown),-24.1
17,CN(C)S(=O)(=O)n1cnc(-c2ccccc2)c1-c1ccccc1,11.4
18,Fc1ccc(NC(=S)NC2CC3CCCC(C2)N3Cc2cccs2)cc1 (stereo not shown),-21.3
19,COc1ccc(C(=O)NCC(=O)NCC(=O)OCc2ccc(Br)cc2)cc1,4.68
20,CC(Oc1ccc(Cl)cc1Cl)C(=O)/C=C/N(C)C (stereo not shown),-1.11
21,COc1ccccc1CCN1C(=S)NC(C)(C)CC1(C)O (stereo not shown),9.42
